Results on 26 compounds are retold here after paper PMC13083723 (Patterns, 2026).

SMILES strings stand for the structures. Among all 5,400 compounds or so, about 190 (3.5%) showed an effect of 50% or more. Some of the results follow.

The test relates to Vero-E6. Nature of the test: primary screen, phospholipidosis by LipidTOX staining; higher = more effect of the substance. The note with it: 10 µM. In a few lines:
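Single-concentration screen at 10 μM, with DMSO 0.1 v/v % and amiodarone 10 μM as controls. Read-out is LipidTOX Red phospholipid staining, which tolerates aldehyde fixation, in Vero-E6 cells.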
For `CCCOc1ccc(Br)cc1-c1cc(-c2ccc(Cl)cc2)[nH]c1-c1ccncc1`, the result_ITMP was -4.46%.
Next, `NCCCCN`: -4.38%; `CN(C)CCOc1cc(-c2cn[nH]c2)ccc1NC(=O)C1COc2ccccc2O1` (centres unmarked): 18.2%.
Regarding `C=CCn1c(=O)n([C@@H]2O[C@H](CO)[C@@H](O)[C@H]2O)c2nc(N)nc(O)c21`, the result_ITMP was -1.06%.
The same measure for `CN(Cc1ccc(C(C)(C)C)cc1)Cc1cccc2ccccc12`: 1.14%; for `N=C(CC(O)COc1ccccc1-c1ccccc1)N1CCCCC1` (centres unmarked): -1.97%.
The same measure for `O=C(NCCCNc1nc(Nc2cccc(NC(=O)N3CCCC3)c2)ncc1I)c1cccs1`: 18.5%; for `CN1CC[C@@H](c2c(O)cc(O)c3c(=O)cc(-c4ccccc4Cl)oc23)[C@@H]1CO`: 35.1%.
Next, `CC1(C)Oc2ccc(C#N)cc2[C@@H](OC2=CC(=O)CC2)[C@@H]1O`: -4.63%; `CCCCCCCCNC(C)C(O)c1ccc(SC(C)C)cc1` (centres unmarked): -0.91%; `CC(=O)CC(c1ccc([N+](=O)[O-])cc1)c1c(O)c2ccccc2oc1=O` (centres unmarked): -4.22%.
On to `O=C(O)c1cc([N+](=O)[O-])ccc1NCCCc1ccccc1`, for which the result_ITMP is -0.35%.
Next, `S=c1[nH]cnc2nc[nH]c12`: -1.86%.
Consider `CC(C)(C)c1ccc(O)cc1`, for which the result_ITMP is on record as -1.81%.
The same measure for `CNC(=S)C1(c2ccccn2)CCCS1` (centres unmarked): -5.51%.
Next, `NS(=O)(=O)c1ccc(NC(=O)Nc2ccc(F)cc2)cc1`: -1.55%; `CCC(=O)c1ccc(OCC(O)CN2CCN(c3ccccc3)CC2)cc1` (centres unmarked): -5.46%; `CN1CC[C@@H]2CN3CCc4cccc(c43)[C@@H]2C1`: 5.83%.
Next, `COc1cc(C(=O)NC2CCN(C)CC2)c(F)cc1Nc1ncc2c(n1)N(C1CCCC1)CC(F)(F)C(=O)N2C`: 69.4%; `COc1ccc2c3c1O[C@H]1C[C@@H](O)C=C[C@@]31CCN(C)C2`: -3.23%; `O=C(CN1C(=O)C2(CCCC2)NC[C@H]1c1cc(F)cc(F)c1)Nc1ccc2c(c1)C[C@@]1(C2)C(=O)Nc2ncccc21`: -1.44%.
Take `Cc1cc(F)c(Nc2ncnc3cc(OCc4ccccc4)ccc23)cc1O`: the result_ITMP was -2.14%.
Consider `CC(C)[C@@H](N)C(=O)O`, for which the result_ITMP is reported as -0.03%.
Turning to `CCCC(=O)O[C@]1(C(=O)CO)CC[C@H]2[C@@H]3CCC4=CC(=O)CC[C@]4(C)[C@H]3[C@@H](O)C[C@@]21C`, the result_ITMP was -5.08%.
The same measure for `Cn1cncc1[C@@](N)(c1ccc(Cl)cc1)c1ccc2c(c1)c(-c1cccc(Cl)c1)cc(=O)n2C`: 22%.
With `Cc1cc(C#N)cc(C)c1Oc1nc(Nc2ccc(C#N)cc2)nc(N)c1Br`, the result_ITMP was found to be 0.4%.
